# Experimental data reported in publication PMC4336329 (PLoS ONE, 2015).
# Out of some 310,000 compounds screened, about 14,000 (4.5%) showed an effect of 50% or more. The effect is printed as a negative number. Some of the results follow.
# Target: human ether-à-go-go-related gene (hERG) potassium channel (human, UniProt Q12809)
# Test: primary screen, population patch clamp on CHO cells stably expressing hERG
# 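Further: peak tail current of the secondary pulse compared with the same well before compound.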
# Chain of human ether-à-go-go-related gene (hERG) potassium channel (Q12809 whole entry, looked up): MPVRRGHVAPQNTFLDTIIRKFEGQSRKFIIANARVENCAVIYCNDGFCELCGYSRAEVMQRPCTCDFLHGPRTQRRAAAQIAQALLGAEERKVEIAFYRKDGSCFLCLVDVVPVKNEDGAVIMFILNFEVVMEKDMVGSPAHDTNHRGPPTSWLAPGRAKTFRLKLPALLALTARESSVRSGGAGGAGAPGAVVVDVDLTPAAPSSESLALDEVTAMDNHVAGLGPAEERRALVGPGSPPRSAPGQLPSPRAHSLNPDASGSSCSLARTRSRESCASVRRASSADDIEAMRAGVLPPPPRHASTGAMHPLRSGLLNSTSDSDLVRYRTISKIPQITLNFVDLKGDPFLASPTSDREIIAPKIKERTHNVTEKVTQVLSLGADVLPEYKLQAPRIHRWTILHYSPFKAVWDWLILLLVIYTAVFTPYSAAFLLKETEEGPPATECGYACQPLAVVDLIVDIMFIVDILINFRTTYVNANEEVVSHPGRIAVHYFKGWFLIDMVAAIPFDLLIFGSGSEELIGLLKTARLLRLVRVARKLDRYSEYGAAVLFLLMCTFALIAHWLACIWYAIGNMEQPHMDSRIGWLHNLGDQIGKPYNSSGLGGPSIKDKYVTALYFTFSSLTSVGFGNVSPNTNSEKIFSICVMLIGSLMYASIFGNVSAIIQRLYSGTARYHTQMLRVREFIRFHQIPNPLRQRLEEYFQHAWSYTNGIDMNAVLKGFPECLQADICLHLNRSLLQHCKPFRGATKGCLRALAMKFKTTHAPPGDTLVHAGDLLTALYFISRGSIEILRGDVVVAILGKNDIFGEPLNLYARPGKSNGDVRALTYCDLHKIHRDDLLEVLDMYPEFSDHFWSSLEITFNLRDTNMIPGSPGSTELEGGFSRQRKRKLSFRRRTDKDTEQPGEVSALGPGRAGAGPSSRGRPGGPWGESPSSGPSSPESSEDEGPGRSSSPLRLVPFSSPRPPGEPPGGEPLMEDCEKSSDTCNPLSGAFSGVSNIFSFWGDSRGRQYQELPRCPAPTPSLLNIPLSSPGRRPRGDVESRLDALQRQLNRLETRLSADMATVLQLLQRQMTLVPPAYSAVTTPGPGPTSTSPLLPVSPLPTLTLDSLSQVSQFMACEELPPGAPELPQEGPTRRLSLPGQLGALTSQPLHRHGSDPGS
row,SMILES,"hERG current change (%, negative = inhibition) at 10uM"
1,COc1ccc(N(CC(=O)N/N=C/c2cc(OC)ccc2OC)S(=O)(=O)c2ccccc2)cc1,5.48%
2,CCC(=O)C(C#N)(c1ccc(OC)c(OC)c1)C(C)C (stereo not shown),-7.65%
3,O=c1[nH]c2ccccc2o1,20.3%
4,CCCn1nc(NC(=O)c2ccco2)c2cc3ccccc3nc21,-31.4%
5,Cc1cnn(CCC(=O)NNC(=S)Nc2ccc(F)cc2)c1,13.8%
6,CC(C)N(CCNC(=O)C1CCC(=O)N1Cc1ccc(F)cc1)Cc1ccccc1 (stereo not shown),-13%
7,O=C1CC(c2ccc(F)cc2)Cc2nc(N3CCOCC3)ncc21 (stereo not shown),-1.81%
8,COc1ccc(NC(=O)CCN2CCCC(C)C2)cc1 (stereo not shown),-23.2%
9,CNC(=O)c1ccccc1Sc1cccc2cccc(C(=O)O)c12,12.3%
10,Cc1ccc(/C(C#N)=C\c2ccc(N3CCOCC3)o2)cc1,-15.4%
11,CCN(CC)CCNC(=O)/C(=C/c1cn(CC)c2ccccc12)NC(=O)c1cc(OC)c(OC)c(OC)c1,8.3%
12,CC(=O)Nc1ccc(S(=O)(=O)NNC(=O)c2sc(=S)n(C)c2C)cc1,0.763%
13,CCCCNc1nnc(SCC(=O)c2c[nH]c3ccccc23)s1,-2.72%
14,CC(=O)c1ccc(OCC(=O)NC2CCCCCC2)cc1,-3.21%
15,Cc1cccc(-n2ncc3c2CCCC3NC(=O)C2=CC(=O)CC(C)(C)O2)c1C (stereo not shown),-0.83%
16,CNc1oc(-c2ccc(F)cc2)nc1S(=O)(=O)c1ccccc1,-2.4%
17,Cc1cccc(NC(=O)CSCC(=O)Nc2ccccc2C(=O)NC2CC2)c1,-1.72%
18,CCCC(=O)Nc1nnc(SCC(=O)NCc2ccc3c(c2)OCO3)s1,25.5%
19,O=C(CS(=O)(=O)c1ccccc1)Nc1cccnc1,24.9%
20,COc1ccccc1S(=O)Cc1ccc(C(=O)NCc2ccccc2Cl)o1 (stereo not shown),-19.5%

row,SMILES,"hERG current change (%, negative = inhibition) at 10uM"
1,CC(/C=C/c1ccccc1)=N\NC(=O)c1cc(C)nc2ccccc12,8.41%
2,O=C(O)c1cc2cccc(S(=O)(=O)N3CCOCC3)c2cc1O,12.1%
3,COc1ccc(NC(=O)CN2CCN(C(=O)c3ccco3)CC2)c(OC)c1,-37.4%
4,Cc1ccc(C(=O)NC(=S)N2CCN(c3ccccc3F)CC2)cc1,4.18%
5,Cc1ncc([N+](=O)[O-])n1CCO,6.57%
6,O=C(Cc1ccc(NS(=O)(=O)c2ccc(F)cc2)cc1)NCc1ccccc1,-16.4%
7,CCOC(=O)c1[nH]c2ccccc2c1NC(=O)Nc1ccc(OC)cc1,2.47%
8,COc1ccc(C(=O)NCc2ccc3c(c2)cc(C)n3C)cc1,5.56%
9,CC(=O)c1ccc(S(=O)(=O)Nc2cccc(-n3cnnn3)c2)cc1,4.99%
10,Cc1ccc(-c2c(C(=O)N/N=C/c3cccc(Cl)c3)nnn2-c2nonc2N)cc1,12.5%
11,O=C(Cn1cnc2ccccc2c1=O)NCc1cccs1,17.7%
12,O=C(CSc1nncn1-c1ccccc1)Nc1cccc(S(=O)(=O)N2CCCCC2)c1,9.1%
13,CCc1nnc(NC(=O)CN2C(=O)c3ccccc3S2(=O)=O)s1,10.7%
14,O=C(NCc1ccco1)C(Cc1ccccc1)N1C(=O)C2C3C=CC(C3)C2C1=O (stereo not shown),-1.04%
15,CCOC(=O)CSCC(=O)Nc1ccc(S(=O)(=O)N2CCCCC2)cc1,-0.639%
16,C=CCn1c(SCC(=O)Nc2cc(C)ccc2C)nnc1-c1cnccn1,-14.4%
17,Cc1cccc(CC(=O)Nc2ccc(C(=O)N3CCCCC3)cc2)c1,19.2%
18,CC(C)C(NC(=O)c1ccccc1)C(=O)NCc1ccccn1 (stereo not shown),9.6%
19,CC(=O)Nc1cccc(N)c1,12.9%
20,O=C(/C=C/c1cccs1)Nc1nccs1,15.8%

row,SMILES,"hERG current change (%, negative = inhibition) at 10uM"
1,CN(c1ccccc1)S(=O)(=O)c1ccc(NC(=O)c2nc(S(C)(=O)=O)ncc2Cl)cc1,10.9%
2,Cc1ccc(S(=O)(=O)NCCOCCNS(=O)(=O)c2ccc(C)cc2)cc1,-31.7%
3,CN1CCc2c(sc3c2c(NCc2ccco2)nc2nnnn23)C1,-71.8%
4,Cc1ccc(OCC(=O)Nc2cccc3nsnc23)c(C)c1,11.3%
5,CCN1CCN(c2nc3c(C)cccn3c(=O)c2/C=C(\C#N)S(=O)(=O)c2ccccc2)CC1,-15.7%
6,COCCn1c(SCC(=O)NC2CCCC2)nc2cccnc21,17.1%
7,COc1ccc(-c2noc(CSc3nnc(-c4ccccc4)n3C)n2)cc1,-32.8%
8,O=[N+]([O-])c1ccccc1CCc1cnc(Cl)s1,5.76%
9,O=C(NCCN1CCN(C(=O)c2c(F)cccc2F)CC1)C(=O)Nc1ccc(Cl)cc1,-32.5%
10,COc1cccc(-c2nc(CS(=O)(=O)CC(=O)N3CCOCC3)c(C)o2)c1,10.2%
11,O=C(Cc1ccc(F)cc1)Nc1cccc(S(=O)(=O)N2CCCC2)c1,-33.7%
12,COc1ccccc1/C=C(\C)C(=O)c1c(C)cc(C)[nH]c1=O,3.35%
13,Cc1nc(OCc2ccccc2)c2ccccc2n1,-2.5%
14,O=C(NCCn1c(C(F)(F)F)nc2ccccc21)[C@H]1CCCN1c1nc(CN2CCCCC2)cs1,6.03%
15,CCOC(=O)N1CCN(c2c(NCCc3ccccc3)c(=O)c2=O)CC1,5.85%
16,O=C(Nn1cnc2ccccc2c1=O)c1ccccc1,12.7%
17,Nc1nc(NCc2ccccc2Cl)n(-c2ccccc2)n1,30.9%
18,O=C(Nc1ccccc1Oc1cccnc1)C1CCCN(Cc2ccccc2O)C1 (stereo not shown),-57.2%
